About 2,200 (0.71%) of roughly 310,000 compounds showed an effect of 50% or more. The effect is printed as a negative number. The list shows a part of the results.
These molecules were tested against human ether-à-go-go-related gene (hERG) potassium channel (human, UniProt Q12809) (assay: primary screen, population patch clamp on CHO cells stably expressing hERG).
human ether-à-go-go-related gene (hERG) potassium channel, sequence (Q12809 whole entry, looked up): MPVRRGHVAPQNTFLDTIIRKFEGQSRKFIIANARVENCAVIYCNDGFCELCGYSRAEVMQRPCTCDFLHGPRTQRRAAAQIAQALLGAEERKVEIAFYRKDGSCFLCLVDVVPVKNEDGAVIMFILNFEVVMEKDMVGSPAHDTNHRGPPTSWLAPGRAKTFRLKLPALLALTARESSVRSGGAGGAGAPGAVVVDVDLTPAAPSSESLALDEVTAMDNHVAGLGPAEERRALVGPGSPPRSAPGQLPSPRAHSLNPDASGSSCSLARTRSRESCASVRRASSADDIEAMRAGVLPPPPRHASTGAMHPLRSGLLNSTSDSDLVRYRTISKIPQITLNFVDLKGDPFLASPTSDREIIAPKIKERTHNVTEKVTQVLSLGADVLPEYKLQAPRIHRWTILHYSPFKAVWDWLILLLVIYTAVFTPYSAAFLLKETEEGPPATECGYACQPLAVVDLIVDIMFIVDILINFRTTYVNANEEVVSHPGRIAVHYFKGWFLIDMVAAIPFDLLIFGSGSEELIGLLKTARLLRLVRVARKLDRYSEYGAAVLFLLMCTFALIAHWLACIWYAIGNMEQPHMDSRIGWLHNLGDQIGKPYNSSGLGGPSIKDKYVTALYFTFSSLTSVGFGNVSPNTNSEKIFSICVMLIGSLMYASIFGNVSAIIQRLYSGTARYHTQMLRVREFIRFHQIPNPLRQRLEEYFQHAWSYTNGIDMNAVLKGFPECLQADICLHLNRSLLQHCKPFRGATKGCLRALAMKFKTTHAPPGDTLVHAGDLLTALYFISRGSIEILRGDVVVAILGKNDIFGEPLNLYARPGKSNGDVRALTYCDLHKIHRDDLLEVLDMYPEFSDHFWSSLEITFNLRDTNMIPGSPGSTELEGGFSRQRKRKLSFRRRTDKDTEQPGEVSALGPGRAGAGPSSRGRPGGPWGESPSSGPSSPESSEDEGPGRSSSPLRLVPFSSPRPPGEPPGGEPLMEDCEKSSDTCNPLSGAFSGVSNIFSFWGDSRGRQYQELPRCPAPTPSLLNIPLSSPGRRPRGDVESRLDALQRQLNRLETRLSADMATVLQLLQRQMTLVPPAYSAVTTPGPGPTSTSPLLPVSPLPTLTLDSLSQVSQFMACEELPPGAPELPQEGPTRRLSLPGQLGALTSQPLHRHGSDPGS

Row | SMILES | hERG current change (%, negative = inhibition) at 1uM [%]
1 | COc1ccc(-n2c(-c3ccc(Cl)cc3)c[nH]c2=S)cc1 | 22.7
2 | COc1ccc(C(=O)NCC2(c3ccccc3)CCCC2)c(OC)c1 | -1.75
3 | CCOC(=O)c1ccc(NC(=O)CC2SCCNC2=O)cc1 (stereo not shown) | 14.1
4 | C=CCn1c(SCC(=O)Nc2ccc3c(c2)CCC3)nc2ccccc2c1=O | 11
5 | CC(OC(=O)Cn1cnc2ccccc2c1=O)C(=O)N(C)c1ccccc1 (stereo not shown) | 3.98
6 | NS(=O)(=O)c1ccc(CNC(=O)Cn2nc(C(F)F)cc2C(F)F)cc1 | 3.37
7 | CC1=CC=CC2=NC(=O)CC(C)(C(=O)N(CC(=O)NC3CCCC3)c3ccc(F)cc3)N12 (stereo not shown) | 11.1
8 | COc1ccc(C(=O)NCC2(c3ccccc3)CCOCC2)cc1[N+](=O)[O-] | 5.38
9 | O=C(Nc1ccccc1C(=O)NCC1CCCO1)c1ccc(Cl)cc1Cl (stereo not shown) | -4.44
10 | Cc1nnc(C)c2c(C)n(-c3ccc(Cl)c(N)c3)c(C)c12 | 4.32
11 | COC(=O)c1c(NC(=O)c2ccc(S(=O)(=O)N3CCOCC3)cc2)sc2c1CCN(C)C2.Cl | -1.22
12 | O=C1c2cccc3c(O)ccc(c23)C(=O)N1c1ccc(Cl)cc1 | 4.49
13 | O=C(N[C@@H](Cc1c[nH]c2ccccc12)C(=O)NC1CC1)c1ccccc1Cl | 12.5
14 | CSc1cccc(-c2nnc(NC(=O)c3cccc(N4C(=O)CCC4=O)c3)o2)c1 | 12.9
15 | COc1ccc(C(=O)N2CCCC2)cc1 | 3.13
16 | CCCCN1C(N)=NC[C@@H]1Cc1ccccc1 | 7.48
17 | CCOc1ccc2nc(SCC(=O)NC3CCCc4ccccc43)sc2c1 (stereo not shown) | 13.2
18 | C=CCc1ccc(OCCCCN2CC(C)CC(C)C2)c(OC)c1.O=C(O)C(=O)O (stereo not shown) | -18.2
19 | CC(C)(C)OC(=O)N1CCC(Cc2cc(-c3ccc(Cl)cc3)no2)(C(=O)O)CC1 | 3.67
20 | Cc1cc(C)cc(NC(=O)c2sc3nc(C)cc(C)c3c2N)c1 | 16.4
21 | CC(C)OC(=O)CC(=O)CSc1nc(-c2ccc(F)cc2)cc(-c2ccccc2)c1C#N | 5.99
22 | CN(CC(=O)Nc1c(Cl)cccc1Cl)C(=O)c1cc2ccccc2cc1O | 8.94

Row | SMILES | hERG current change (%, negative = inhibition) at 1uM [%]
23 | CC(=O)c1c(O)c2ccccc2n(C(C)C)c1=O | 17.2
24 | Cc1cccc(NC(=O)NCCN2CCCCC2)c1 | -1.66
25 | CC1CN(C(=O)N2c3ccccc3Sc3ccccc32)C(C)CC1=O (stereo not shown) | 12.6
26 | O=C(NC(=S)Nc1ccc(N2CCOCC2)cc1)c1cccc(Cl)c1Cl | 3.33
27 | O=C(NCCCN=C1NS(=O)(=O)c2ccccc21)c1ccc(F)cc1 | 15
28 | O=C(OCc1nc2scc(-c3ccccc3)c2c(=O)[nH]1)c1cc(Cl)ccc1[N+](=O)[O-] | 17.1
29 | c1ccc2nc3c(nc2c1)CCCC3 | 5.84
30 | CCOC(=O)C1=C(C)OC(N)=C(C#N)C1c1cc(SCC)oc1C (stereo not shown) | -0.0227
31 | CC1(C)CNc2cc(N)ccc2S1 | 17.4
32 | COc1ccc(/C=N/NC(=O)c2cc(-c3cccn3C)n[nH]2)cc1OC | -5.43
33 | O=C1N(C2CCCC2)C[C@@H]2C[C@@H](c3cn[nH]c3-c3ccc(Cl)cc3)N3CCC[C@@]123 | -0.707
34 | COCC(=O)OCn1nnc2ccccc2c1=O | 2.02
35 | Cc1c(NC(=O)CN2C(=O)NC(C)(c3ccc(Cl)cc3)C2=O)c(=O)n(-c2ccccc2)n1C (stereo not shown) | -8.22
36 | COCCn1cnc2c1c(=O)[nH]c(=O)n2Cc1ccccc1 | 16.7
37 | CC1CCCCN1C(=O)CSc1nnc(-c2c[nH]c3ccccc23)o1 (stereo not shown) | 1.71
38 | Cc1ccc(NC(=S)N2CCN(CCN3C(=O)c4cccc5cccc(c45)C3=O)CC2)cc1 | 18.8
39 | Br.OCCn1c(-c2ccc3c(c2)OCO3)csc1=Nc1ccccc1 | 17.3
40 | CC1(S(=O)(=O)[O-])CC(=O)c2ccccc2C1=O.O.[Na+] (stereo not shown) | 2.35
41 | O=C(Cn1ncc2c3ccccc3n(Cc3cccc(Cl)c3)c2c1=O)NCC1CCCO1 (stereo not shown) | 19.7
42 | CCc1nccn1S(=O)(=O)c1ccc(Br)cc1Br | -8.65
43 | CCC(C(=O)OCC(=O)Nc1cc(OC)ccc1OC)c1ccccc1 (stereo not shown) | 16.2
44 | COc1ccc(N(CC(=O)N/N=C(\C)c2ccc(C)cc2)S(=O)(=O)c2ccccc2)cc1 | 17.9

Row | SMILES | hERG current change (%, negative = inhibition) at 1uM [%]
45 | C=CCn1c(NCCO)nc2sc3c(c2c1=O)CCC3 | 8.83
46 | O=C(CSc1ccc2c(c1)OCCO2)Nc1cccnc1Cl | 10.5
47 | CSc1ncc(/C=C2/C(=O)NC(=O)N(C3CCCCC3)C2=O)cn1 | -4.38
48 | O=C(CN1CCN(S(=O)(=O)c2ccc(Cl)cc2)CC1)c1ccc(O)c(O)c1 | -24.8
49 | O=C(NCc1ccccn1)C1Nc2ccc(OC(F)(F)F)cc2C2C=CCC12 (stereo not shown) | 13.5
50 | C=CCn1c(SCc2ccc(OC)cc2)nnc1-c1cccnc1 | -16
51 | CN(C)CCC(=O)c1ccc(Cl)cc1.Cl | 4.49
52 | CCn1cc(C(=O)NCCC(=O)NCCCO)c(=O)c2cc3c(cc21)OCO3 | 13
53 | COc1ccc(C(=O)N(C)Cc2ccc(C)o2)cc1OC1CCN(C(C)=O)CC1 | 9.5
54 | CC(C)Oc1ccc(NC(=O)CCC(=O)O)cc1 | 9.32
55 | C/C=C/c1ccc(OCC(=O)Nc2cc(OC)c(OC)c(OC)c2)c(OC)c1 | 6.93
56 | NS(=O)(=O)c1ccc(NS(=O)(=O)c2ccc(C3CNC(=O)C3)cc2)cc1 (stereo not shown) | 7.74
57 | Cc1cc(NC(=O)CCCN2C(=O)c3cccnc3C2=O)no1 | 5.85
58 | O=C(NC(=S)Nc1cc([N+](=O)[O-])ccc1Cl)c1ccccc1 | 0.486
59 | CCOc1cc(C2NC(=O)CCC2[N+](=O)[O-])cc(Br)c1OCC (stereo not shown) | -2.61
60 | CCOc1ccccc1OCC(=O)Nc1ccc2[nH]c(=O)[nH]c2c1 | 17.6
61 | COCCNC(=O)c1ccc2c(c1)nc(C)n2-c1cccc(Cl)c1 | 12.2
62 | O=C(Nn1c(SCc2ccccc2F)nc2ccsc2c1=O)c1ccccc1 | 7.44
63 | CCc1oc(C(=O)O)cc1COC | -4.45
64 | CC(=O)N1c2ccccc2C2(C)C(C1(C)C)C2(Cl)Cl (stereo not shown) | 6.19
65 | CC(C)CC(=O)NCCCN1CCN(CCCNC(=O)CC(C)C)CC1 | 14.5
66 | CC(c1nnc(SCC(=O)NC(=O)NCc2ccco2)n1-c1ccc(Cl)cc1)N(C)C (stereo not shown) | 2.72

Row | SMILES | hERG current change (%, negative = inhibition) at 1uM [%]
67 | Cc1cc(OC(C)C(=O)N2CCN(c3ccc(F)cc3)CC2)c2c(C)cc(=O)oc2c1 (stereo not shown) | 2.1
68 | CCCc1nc2c([nH]1)c(=O)n(C)c(=O)n2C | 18.6
69 | CCc1nn(-c2cc(Cl)ccc2OC)c2c1C(=O)CCC2 | -0.087
70 | Cc1cc(C(=O)NNc2ccc(C)c(C)c2)no1 | 14.6
71 | CC1CN(Cc2nc3c(c(=O)[nH]c(=O)n3C)n2CCN2CCOCC2)CC(C)O1 (stereo not shown) | 11.8
72 | CN(C)S(=O)(=O)c1cccc(NC(=O)COC(=O)C2CCN(C(=O)c3ccc(F)cc3)CC2)c1 | -9.92
73 | O=C(CCCN1C(=O)/C(=C/c2ccccc2Cl)SC1=S)NNC(=O)c1ccc(Cl)cc1 | 4.67
74 | COc1ccc(C(C(=O)NC2CCCCC2)N(C(=O)CCl)c2ccc(OC)cc2)cc1 (stereo not shown) | -4.47
75 | CCOc1ccc(NC(=O)C2CCCN(S(=O)(=O)c3cnc[nH]3)C2)cc1 (stereo not shown) | 2.15
76 | CN(C)CCNC(=O)c1c(O)c2c([nH]c1=O)CCCC2 | 12.4
77 | CC(C)(C)c1csc(N(CCC#N)CCC#N)n1 | 3.19
78 | CCC(C)(C)n1nnnc1C(c1cccnc1)N1CCC(Cc2ccccc2)CC1 (stereo not shown) | -2.9
79 | O=C(Cc1ccc(Br)cc1)N1CCN(c2ccccc2)CC1 | 9.2
80 | CC(=O)Nc1ccc(NC(=O)c2c(C)c(-c3ccccc3)nc3ccccc23)cc1 | 12.2
81 | COCCCn1ccc(O)c(Cc2ccc(F)cc2)c1=O | -0.754
82 | CCc1ccc(-c2cc(C)no2)cc1S(=O)(=O)NC(C)Cc1ccco1 (stereo not shown) | 10.7
83 | Cc1nc2sc(C(c3cccc(F)c3)N3CCOCC3)c(O)n2n1 (stereo not shown) | 13.2
84 | COC(=O)c1sc(-c2ccccc2)cc1NC(=O)C1CC1 | 8.56
85 | Cc1ccc2nc(-c3ccc(NC(=O)COC(=O)c4ccc([N+](=O)[O-])o4)cc3)sc2c1 | 5.48
86 | CC(=O)c1ccc(Nc2nc3ccccc3nc2NS(=O)(=O)c2cccs2)cc1 | 10.1
87 | CCOc1ccc(N(CC)S(=O)(=O)c2ccc3c(c2)n(C)c(=O)c(=O)n3C)cc1 | -4.68
88 | CC(=O)Nc1ccc(C(c2c(O)c3ccccc3oc2=O)c2c(C)n(C)n(-c3ccccc3)c2=O)cc1 (stereo not shown) | 8.13

Source: article PMC4336329 (PLoS ONE, 2015)
